From article PMC10668032
The other results are listed elsewhere or left out. At the low end of the ranking the order means little.

biological target: SIX1 homeodomain (reference allele) (UniProt Q15475); test: universal protein binding microarray; conditions: Universal all-10-mer PBM (8x60K, AMADID 030236), 300 nM GST-tagged protein, Alexa Fluor 488 anti-GST; buffer, salt, pH and temperature not stated; high values mean tight binding; most listed sequences are background and not binding sites; double strand, one strand shown

Q: CTCGCCCC was tested. Which binding signal did it give?
A: The binding signal was 0.0946 E-score.

Q: How did the binding signal turn out when AAACATGG was run?
A: The binding signal was -0.0271 E-score.

Q: Which binding signal does the source give for CATATAGG here?
A: The binding signal was 0.121 E-score.

Q: Which binding signal does the source give for ATCAACAC here?
A: The binding signal was 0.267 E-score.

Q: For CCCGAGGA, which binding signal is on record?
A: Its binding signal is 0.125 E-score.

Q: Which binding signal does the source give for ATGTTAAT here?
A: The binding signal was -0.023 E-score.

Q: CTATCTAC was tested. Which binding signal did it give?
A: Its binding signal is 0.24 E-score.

Q: CGTCCTGA was tested. Which binding signal did it give?
A: The binding signal was -0.0325 E-score.

Q: GTGAGGGA was tested. Which binding signal did it give?
A: Its binding signal is 0.125 E-score.

Q: With CCGTATAG as the sequence, how does the binding signal read?
A: The binding signal was 0.239 E-score.

Q: Which binding signal does the source give for TCACTTCA here?
A: The binding signal was -0.0996 E-score.

Q: With TGAGGCCA as the sequence, how does the binding signal read?
A: Its binding signal is 0.00241 E-score.

Q: With AGAGCCTC as the sequence, how does the binding signal read?
A: The binding signal was -0.17 E-score.

Q: With GTGTCTAA as the sequence, how does the binding signal read?
A: The binding signal was 0.116 E-score.

Q: How did the binding signal turn out when AAAACCGA was run?
A: The binding signal was -0.00205 E-score.

Q: Which binding signal does the source give for GCGGCAAA here?
A: Its binding signal is -0.0328 E-score.

Q: For AGCATGGA, which binding signal is on record?
A: The binding signal was -0.0205 E-score.

Q: For ATGAGGTA, which binding signal is on record?
A: The binding signal was 0.0879 E-score.

Q: For TATATGGA, which binding signal is on record?
A: Its binding signal is 0.207 E-score.

Q: With GCCTGGCC as the sequence, how does the binding signal read?
A: Its binding signal is -0.315 E-score.

Q: With CAGGGGCA as the sequence, how does the binding signal read?
A: Its binding signal is -0.0236 E-score.

Q: Which binding signal does the source give for ATCGGTCA here?
A: Its binding signal is 0.0978 E-score.

Q: Which binding signal does the source give for GGCCCAAC here?
A: Its binding signal is -0.0844 E-score.

Q: AATTAAAG was tested. Which binding signal did it give?
A: Its binding signal is -0.255 E-score.

Q: For TACTACCA, which binding signal is on record?
A: The binding signal was 0.0906 E-score.

Q: For CTTGGCTC, which binding signal is on record?
A: Its binding signal is -0.181 E-score.

Q: Which binding signal does the source give for GCCATCTA here?
A: The binding signal was -0.126 E-score.

Q: Which binding signal does the source give for CGCGATCC here?
A: The binding signal was 0.391 E-score.

Q: ATTGTTAC was tested. Which binding signal did it give?
A: Its binding signal is -0.0151 E-score.

Q: Which binding signal does the source give for ACCCATTG here?
A: Its binding signal is 0.0832 E-score.

Q: With GAGATTCC as the sequence, how does the binding signal read?
A: The binding signal was 0.13 E-score.

Q: With ACGCGGCT as the sequence, how does the binding signal read?
A: The binding signal was -0.195 E-score.

Q: Which binding signal does the source give for AAATCCCA here?
A: Its binding signal is -0.0283 E-score.

Q: ATCTATGC was tested. Which binding signal did it give?
A: The binding signal was 0.261 E-score.

Q: Which binding signal does the source give for ACCCCGAA here?
A: The binding signal was 0.0891 E-score.

Q: With AGACACCG as the sequence, how does the binding signal read?
A: The binding signal was 0.323 E-score.

Q: AGTCAGAC was tested. Which binding signal did it give?
A: The binding signal was -0.0643 E-score.

Q: For AGCAAATC, which binding signal is on record?
A: Its binding signal is -0.093 E-score.

Q: Which binding signal does the source give for TCGTAGAA here?
A: The binding signal was 0.0606 E-score.

Q: For ACCTTGAT, which binding signal is on record?
A: Its binding signal is 0.181 E-score.

Q: GTACCGGA was tested. Which binding signal did it give?
A: The binding signal was 0.0429 E-score.

Q: ATATTTGA was tested. Which binding signal did it give?
A: The binding signal was 0.173 E-score.

Q: How did the binding signal turn out when CGTCTTCC was run?
A: The binding signal was 0.0555 E-score.

Q: For CCTCCCTC, which binding signal is on record?
A: Its binding signal is 0.025 E-score.

Q: With ATCACACC as the sequence, how does the binding signal read?
A: Its binding signal is 0.341 E-score.

Q: Which binding signal does the source give for GGTATAGA here?
A: Its binding signal is 0.301 E-score.

Q: AGTCTCTC was tested. Which binding signal did it give?
A: The binding signal was -0.248 E-score.

Q: How did the binding signal turn out when CTCTATGA was run?
A: Its binding signal is -0.0356 E-score.

Q: For ACGGCTAC, which binding signal is on record?
A: The binding signal was 0.116 E-score.

Q: TAGCTAGA was tested. Which binding signal did it give?
A: The binding signal was -0.0245 E-score.

Q: For AGAGTATG, which binding signal is on record?
A: The binding signal was -0.191 E-score.

Q: For AGTGATCG, which binding signal is on record?
A: The binding signal was 0.25 E-score.

Q: For ATTGTGCG, which binding signal is on record?
A: Its binding signal is -0.05 E-score.

Q: With AACAGGCT as the sequence, how does the binding signal read?
A: The binding signal was -0.0147 E-score.

Q: With GCTAAGCA as the sequence, how does the binding signal read?
A: The binding signal was -0.159 E-score.

Q: With CGGGCTAG as the sequence, how does the binding signal read?
A: The binding signal was -0.044 E-score.

Q: For GAAGTGTA, which binding signal is on record?
A: The binding signal was -0.147 E-score.

Q: Which binding signal does the source give for AGGATCGA here?
A: The binding signal was 0.289 E-score.

Q: With AACGCGGT as the sequence, how does the binding signal read?
A: The binding signal was 0.0348 E-score.

Q: AGTGTAGG was tested. Which binding signal did it give?
A: Its binding signal is 0.0488 E-score.

Q: With AGCGATGA as the sequence, how does the binding signal read?
A: Its binding signal is -0.0399 E-score.

Q: For ATAAGCAT, which binding signal is on record?
A: The binding signal was 0.00297 E-score.

Q: How did the binding signal turn out when CCGCATTC was run?
A: Its binding signal is -0.233 E-score.

Q: For TCATTCGA, which binding signal is on record?
A: The binding signal was 0.0396 E-score.

Q: ACCTGCCA was tested. Which binding signal did it give?
A: Its binding signal is -0.0771 E-score.

Q: ACCCGCAT was tested. Which binding signal did it give?
A: The binding signal was 0.144 E-score.

Q: GGCTAAAC was tested. Which binding signal did it give?
A: Its binding signal is -0.14 E-score.

Q: TATTAGAA was tested. Which binding signal did it give?
A: Its binding signal is 0.0911 E-score.

Q: AGGGTGCG was tested. Which binding signal did it give?
A: The binding signal was -0.103 E-score.

Q: How did the binding signal turn out when AAAACAGA was run?
A: The binding signal was -0.0704 E-score.

Q: How did the binding signal turn out when AAGGGGCA was run?
A: Its binding signal is -0.183 E-score.

Q: TGAGTGCA was tested. Which binding signal did it give?
A: The binding signal was -0.0271 E-score.

Q: CGGCAAAA was tested. Which binding signal did it give?
A: Its binding signal is -0.179 E-score.

Q: Which binding signal does the source give for ACCAAACT here?
A: The binding signal was -0.15 E-score.

Q: Which binding signal does the source give for CAACCGGA here?
A: Its binding signal is 0.0477 E-score.

Q: With ACCGTGGA as the sequence, how does the binding signal read?
A: The binding signal was 0.0731 E-score.

Q: Which binding signal does the source give for ACAGAAGC here?
A: Its binding signal is -0.169 E-score.

Q: With TCAAGAAA as the sequence, how does the binding signal read?
A: Its binding signal is -0.226 E-score.

Q: How did the binding signal turn out when GTCCGGTA was run?
A: Its binding signal is 0.0225 E-score.

Q: Which binding signal does the source give for AGACGAGG here?
A: Its binding signal is -0.026 E-score.

Q: For GGAATCCC, which binding signal is on record?
A: Its binding signal is 0.232 E-score.

Q: For CGTCCAGA, which binding signal is on record?
A: Its binding signal is -0.0313 E-score.

Q: With ATAACGAG as the sequence, how does the binding signal read?
A: The binding signal was -0.0645 E-score.

Q: Which binding signal does the source give for CCTGCGAA here?
A: The binding signal was -0.31 E-score.

Q: With CCCGGCTA as the sequence, how does the binding signal read?
A: The binding signal was 0.128 E-score.

Q: With ATTGCAGG as the sequence, how does the binding signal read?
A: The binding signal was 0.0225 E-score.

Q: How did the binding signal turn out when ACTCAGCT was run?
A: Its binding signal is -0.152 E-score.

Q: How did the binding signal turn out when CTCCCCAA was run?
A: The binding signal was 0.118 E-score.

Q: CTCTAATC was tested. Which binding signal did it give?
A: Its binding signal is 0.052 E-score.

Q: GAAGGAAA was tested. Which binding signal did it give?
A: Its binding signal is -0.221 E-score.

Q: With CAGCTTCG as the sequence, how does the binding signal read?
A: The binding signal was -0.0658 E-score.

Q: With TCGGCCGA as the sequence, how does the binding signal read?
A: Its binding signal is -0.0272 E-score.

Q: How did the binding signal turn out when AAGTCTGC was run?
A: The binding signal was -0.264 E-score.

Q: How did the binding signal turn out when GCAAAGGC was run?
A: The binding signal was -0.138 E-score.
